The other results are listed elsewhere or left out. No stated cut-off is given here; in the data, active = 3.2 or more and inactive = the rest. Only a few entries rise above the background.
biological target: SHP2 C-SH2 domain E139D; assay: enrichment score (SH2-bound / input frequency) (ratio); bacterial display of known human phosphotyrosine sites (pTyr-Var adds point mutants) read by sequencing; higher = stronger binding; tyrosines were phosphorylated by kinases first; details: peptide library: pTyr-Var
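Further: displayed peptides selected on beads carrying the immobilized SH2 domain, with library peptides lacking any tyrosine serving as negative controls.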

Enrichment score, active:
LFLALYTGLVH [PIGB_Y402] 6.48

Enrichment score, inactive:
QDEPTYARSSK [PEAK1_Y616_H611Q] 0.484
SVEELYAIPPD [PEAK1_Y797] 0.74
IVEELYAIPPD [PEAK1_Y797_S792I] 0.741
KRISCYEASYQ [PFKFB3_Y194] 0.834
KRISCYEARFQ [PFKFB3_Y194_S197R_YF] 0.83
KRISCYEASFQ [PFKFB3_Y194_YF] 0.967
RLRAAYNLVKR [PFKM_Y103] 0.241
LNARHYGGLTG [PGAM2_Y92_E89A] 0.939
KLGDVYVNVAF [PGK1_Y161_D164V] 1.26
LFIDSYEKDVA [PGM1_Y521_YF] 0.756
GDGRFYMKEAI [PGM1_Y66] 0.849
YRDALYKFMVD [PHEX_Y250] 1.34
FRDALYKFIVD [PHEX_Y250_M253I_YF] 2.39
FRDALYKFMVD [PHEX_Y250_YF] 1.99
LRSELYSLIAR [PHIP_Y16_F17S] 1.36
RKGIRYLTSGL [PIGA_Y82] 0.453
LFLALYTGLVR [PIGB_Y402_H407R] 2.33

biological target: SHP2 C-SH2 domain wild-type; assay: as above; details: peptide library: pTyr-Var

Enrichment score, active:
LFLALYTGLVH [PIGB_Y402] 4.06

Enrichment score, inactive:
QDEPTYARSSK [PEAK1_Y616_H611Q] 0.474
SVEELYAIPPD [PEAK1_Y797] 0.477
IVEELYAIPPD [PEAK1_Y797_S792I] 0.76
KRISCYEASYQ [PFKFB3_Y194] 0.958
KRISCYEARFQ [PFKFB3_Y194_S197R_YF] 0.844
KRISCYEASFQ [PFKFB3_Y194_YF] 0.922
RLRAAYNLVKR [PFKM_Y103] 0.24
LNARHYGGLTG [PGAM2_Y92_E89A] 0.681
KLGDVYVNVAF [PGK1_Y161_D164V] 1.34
LFIDSYEKDVA [PGM1_Y521_YF] 0.773
GDGRFYMKEAI [PGM1_Y66] 0.797
YRDALYKFMVD [PHEX_Y250] 1.6
FRDALYKFIVD [PHEX_Y250_M253I_YF] 1.86
FRDALYKFMVD [PHEX_Y250_YF] 1.96
LRSELYSLIAR [PHIP_Y16_F17S] 1.08
RKGIRYLTSGL [PIGA_Y82] 0.417
LFLALYTGLVR [PIGB_Y402_H407R] 2.66

biological target: SHP2 N-SH2 domain L43F; assay: as above; details: peptide library: pTyr-Var

Enrichment score, inactive:
QDEPTYARSSK [PEAK1_Y616_H611Q] 0.514
SVEELYAIPPD [PEAK1_Y797] 0.607
IVEELYAIPPD [PEAK1_Y797_S792I] 0.741
KRISCYEASYQ [PFKFB3_Y194] 0.899
KRISCYEARFQ [PFKFB3_Y194_S197R_YF] 0.75
KRISCYEASFQ [PFKFB3_Y194_YF] 0.919
RLRAAYNLVKR [PFKM_Y103] 0.269
LNARHYGGLTG [PGAM2_Y92_E89A] 0.635
KLGDVYVNVAF [PGK1_Y161_D164V] 1.35
LFIDSYEKDVA [PGM1_Y521_YF] 1.07
GDGRFYMKEAI [PGM1_Y66] 0.807
YRDALYKFMVD [PHEX_Y250] 1.41
FRDALYKFIVD [PHEX_Y250_M253I_YF] 2.11
FRDALYKFMVD [PHEX_Y250_YF] 2.04
LRSELYSLIAR [PHIP_Y16_F17S] 1.23
RKGIRYLTSGL [PIGA_Y82] 0.507
LFLALYTGLVR [PIGB_Y402_H407R] 2.13

Enrichment score, active:
LFLALYTGLVH [PIGB_Y402] 4.87

biological target: SHP2 N-SH2 domain T42A; assay: as above; details: peptide library: pTyr-Var

Enrichment score, active:
LFLALYTGLVH [PIGB_Y402] 4.49

Enrichment score, inactive:
QDEPTYARSSK [PEAK1_Y616_H611Q] 0.302
SVEELYAIPPD [PEAK1_Y797] 0.634
IVEELYAIPPD [PEAK1_Y797_S792I] 0.658
KRISCYEASYQ [PFKFB3_Y194] 0.801
KRISCYEARFQ [PFKFB3_Y194_S197R_YF] 0.617
KRISCYEASFQ [PFKFB3_Y194_YF] 0.678
RLRAAYNLVKR [PFKM_Y103] 0.36
LNARHYGGLTG [PGAM2_Y92_E89A] 0.722
KLGDVYVNVAF [PGK1_Y161_D164V] 1.46
LFIDSYEKDVA [PGM1_Y521_YF] 0.822
GDGRFYMKEAI [PGM1_Y66] 0.723
YRDALYKFMVD [PHEX_Y250] 1.46
FRDALYKFIVD [PHEX_Y250_M253I_YF] 1.71
FRDALYKFMVD [PHEX_Y250_YF] 1.9
LRSELYSLIAR [PHIP_Y16_F17S] 1.04
RKGIRYLTSGL [PIGA_Y82] 0.48
LFLALYTGLVR [PIGB_Y402_H407R] 2.12

biological target: SHP2 N-SH2 domain T52S; assay: as above; details: peptide library: pTyr-Var

Enrichment score, inactive:
QDEPTYARSSK [PEAK1_Y616_H611Q] 0.614
SVEELYAIPPD [PEAK1_Y797] 0.757
IVEELYAIPPD [PEAK1_Y797_S792I] 0.979
KRISCYEASYQ [PFKFB3_Y194] 0.708
KRISCYEARFQ [PFKFB3_Y194_S197R_YF] 0.659
KRISCYEASFQ [PFKFB3_Y194_YF] 0.564
RLRAAYNLVKR [PFKM_Y103] 0.306
LNARHYGGLTG [PGAM2_Y92_E89A] 0.732
KLGDVYVNVAF [PGK1_Y161_D164V] 1.22
LFIDSYEKDVA [PGM1_Y521_YF] 0.835
GDGRFYMKEAI [PGM1_Y66] 0.684
YRDALYKFMVD [PHEX_Y250] 1.25
FRDALYKFIVD [PHEX_Y250_M253I_YF] 2.17
FRDALYKFMVD [PHEX_Y250_YF] 2.17
LRSELYSLIAR [PHIP_Y16_F17S] 1.27
RKGIRYLTSGL [PIGA_Y82] 0.5
LFLALYTGLVR [PIGB_Y402_H407R] 2.55

Enrichment score, active:
LFLALYTGLVH [PIGB_Y402] 3.77

biological target: SHP2 N-SH2 domain wild-type; assay: as above; details: peptide library: pTyr-Var

Enrichment score, active:
LFLALYTGLVH [PIGB_Y402] 7.64

Enrichment score, inactive:
QDEPTYARSSK [PEAK1_Y616_H611Q] 0.441
SVEELYAIPPD [PEAK1_Y797] 0.775
IVEELYAIPPD [PEAK1_Y797_S792I] 0.931
KRISCYEASYQ [PFKFB3_Y194] 1.18
KRISCYEARFQ [PFKFB3_Y194_S197R_YF] 0.827
KRISCYEASFQ [PFKFB3_Y194_YF] 1
RLRAAYNLVKR [PFKM_Y103] 0.284
LNARHYGGLTG [PGAM2_Y92_E89A] 0.907
KLGDVYVNVAF [PGK1_Y161_D164V] 1.54
LFIDSYEKDVA [PGM1_Y521_YF] 0.919
GDGRFYMKEAI [PGM1_Y66] 0.926
YRDALYKFMVD [PHEX_Y250] 1.61
FRDALYKFIVD [PHEX_Y250_M253I_YF] 2.14
FRDALYKFMVD [PHEX_Y250_YF] 2.06
LRSELYSLIAR [PHIP_Y16_F17S] 0.966
RKGIRYLTSGL [PIGA_Y82] 0.317
LFLALYTGLVR [PIGB_Y402_H407R] 2.47

Reference: the supplement of paper PMC10369915
